Measured values reported in the supplement of paper PMC4723716.
Whole data set: some 3,600 compounds, median “viability index relative to DMSO control” near 0.81, cut for the lowest 2% near 0.13. The list shows a part of the results.
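Also: 384-well serum-free SaLSSA: MitoTracker Red CMXRos staining with saponin lysis, high-content imaging, treated-well particle count divided by plate-mean count of DMSO wells.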

These compounds were tested on Plasmodium falciparum NF54 stage V gametocytes (assay: viability index relative to DMSO control (fraction); higher = less gametocyte killing). Settings: 1.25 µM, incubation time: 72 h.
`O=C1N(c2ccccc2)C[C@@H]2C[C@@H](c3ccc4nsnc4c3)N3CCC[C@@]123` showed a viability index of 0.673.
For `Cc1ccc(-c2c[n+](CC(=O)c3ccccc3Cl)c3n2CCC3)cc1`, the viability index was 0.937.
Work on `Cn1c(=O)n(Cc2ccccc2)c(=O)c2c1nc(SCC(=O)Nc1ccccc1)n2Cc1ccccc1` yielded a viability index of 0.573.
In the case of `COC(=O)c1sc(-c2ccccc2)cc1NC(=O)c1ccc(S(=O)(=O)N2CCCCCC2)cc1`, the viability index is reported as 0.62.
`COc1ccc(C2CC(=O)C3=C(C2)NC(C)=C(C(=O)OC(C)C)C3c2ccccc2Cl)cc1OC` (configuration not stated) was tested, and the viability index was 0.463.
`CCC(Nc1ccc(OC)cc1)=C1C(=O)CC(C)(C)CC1=O` gave a viability index of 0.806.
In the case of `CCCc1c(C)nc2ccccc2c1O`, the viability index is reported as 0.71.
`CCSC(Cl)=C(NC(=O)c1ccccc1)[P+](c1ccccc1)(c1ccccc1)c1ccccc1` gave a viability index of 0.0362.
`CCOc1ccccc1C1C(C#N)=C(SCC(=O)Nc2ccc(Cl)cc2)NC(C)=C1C(=O)Nc1ccccc1` (configuration not stated) was tested, and the viability index was 0.5.
In the case of `CCOC(=O)C1=C(C)NC2=C(C(=O)C(C(=O)OCC)C(c3ccccc3OC)C2)C1c1ccc(Cl)cc1` (configuration not stated), the viability index is reported as 0.869.
Compound `CC(C)Cc1nc(N2CCOCC2)c2nnn(Cc3ccccc3)c2n1` has a viability index of 0.779.
`Cc1nc(N2CCC(C)CC2)c2c(C)c(C(=O)Nc3ccc(C(F)(F)F)cc3)sc2n1` gave a viability index of 0.934.
`CCN1CCC(NCCC(c2ccccc2)c2ccccc2)CC1` showed a viability index of 0.687.
For `COc1ccccc1NC1=CC(=NS(=O)(=O)c2cccs2)c2ccccc2C1=O`, the viability index was 0.0154.
In the case of `O=c1c2sccc2nc(SCc2cccc([N+](=O)[O-])c2)n1-c1ccc(Br)cc1`, the viability index is reported as 0.867.
Compound `CC(C)CN1CCC(O)(c2ccc3oc(C(=O)Nc4ccc5c(c4)OCO5)cc3c2)CC1` has a viability index of 1.3.
`COc1ccc(S(=O)(=O)N2CCC(c3nnc(-c4ccccc4OC)o3)CC2)cc1` gave a viability index of 0.95.
For `O=C(Nc1ccc(F)c(Cl)c1)c1c2c(nc3ccccc13)CCN(Cc1ccccc1)C2`, the viability index was 0.497.
`CCOC(=O)c1c[nH]c2c(ccc3ccccc32)c1=O` was tested, and the viability index was 0.667.
For `CCOC(=O)C1=C(C)N=c2sc(=Cc3c4ccccc4cc4ccccc34)c(=O)n2C1c1cc(OC)ccc1OC` (configuration not stated), the viability index was 0.853.
`COc1cccc(C=C2SC(=Nc3ccccc3)NC2=O)c1OC` gave a viability index of 0.668.
`CC(=O)N(C1=C(N(C)C)C(=O)c2ccccc2C1=O)c1ccc(F)c(F)c1` showed a viability index of 0.0288.
With `CCCC1(CCC)NC(=S)N(c2ccc(C)c(C)c2)N1` the viability index was 1.11.
Compound `CN1CCN(c2c3c(c(C#N)c4nc5ccccc5n24)CCC3)CC1` has a viability index of 1.17.
For `COc1ccccc1C(NC(=O)c1cc(OC)c(OC)c(OC)c1)c1cc(Cl)c2cccnc2c1O` (configuration not stated), the viability index was 0.793.
`CC(=O)Nc1ccc(NC(=O)C(C)(C)CCl)cc1` showed a viability index of 0.871.
Work on `OC(CN1CCN(C2c3ccccc3-c3ccccc32)CC1)Cn1c2ccc(Cl)cc2c2cc(Cl)ccc21` (configuration not stated) yielded a viability index of 0.609.
For `O=C(Nc1ccc(Cl)c(Cl)c1)Nc1ccc(Cl)c(Cl)c1`, the viability index was 0.913.
Work on `CCOC(=O)c1ccc(N(C(=O)Cc2c[nH]c3ccccc23)C(C(=O)NC2CCCCC2)c2cccc(OC)c2OC)cc1` (configuration not stated) yielded a viability index of 0.849.
In the case of `Clc1cccc(Nc2nc(NCc3ccco3)c3ccccc3n2)c1`, the viability index is reported as 0.927.
With `Cc1ccc2c(c1)N(CC(=O)NC1CCCCC1C)C(=O)CO2` (configuration not stated) the viability index was 1.15.
For `CC(=NNc1nc(-c2ccccc2O)nc2ccccc12)c1ccccc1O`, the viability index was 0.785.
Work on `N#CC(=Cn1cc(Cc2ccc(Cl)cc2Cl)c2ccccc21)c1nn(CCO)c(N)c1C#N` yielded a viability index of 1.11.
`O=C(O)Cn1cnc2nc3n(c2c1=O)CCC3` was tested, and the viability index was 0.943.
For `CCc1ccc(C2C(C(=O)Nc3ccccc3)=C(C)Nc3c(C(=O)Nc4ccc(C)cc4)cnn32)cc1` (configuration not stated), the viability index was 0.446.
In the case of `COc1cc(-c2nc(-c3ccc(Sc4ccccc4)cc3)c(-c3ccccc3)[nH]2)cc(OC)c1O`, the viability index is reported as 0.643.
Work on `COc1ccc(-c2cc3c(nn2)-c2ccccc2C3=O)cc1` yielded a viability index of 0.614.
For `COCCNCC(O)CON=C1c2ccccc2-c2ccccc21` (configuration not stated), the viability index was 0.711.
For `N#Cc1ccc(NC(=O)NC2CC3CCCC(C2)N3CCc2ccccc2)cc1` (configuration not stated), the viability index was 0.706.
Compound `Cc1cc(Nc2cccc(C(F)(F)F)c2)nc2ccc(NC(=O)c3cncc(Br)c3)cc12` has a viability index of 0.892.
Compound `COc1ccc(-n2nc(C(=O)NCC(=O)Nc3ccc(F)cc3)c3ccccc3c2=O)cc1Cl` has a viability index of 1.02.
Compound `Oc1c2c(nc3cc(-c4ccc(-c5ccccc5)cc4)nn13)CCCC2` has a viability index of 0.768.
Compound `CCc1c(C)nc(SCC(=O)NNC(C)=O)nc1O` has a viability index of 0.9.
`Oc1cc(-c2ccccc2)nc2ccccc12` gave a viability index of 0.73.
For `Cc1cc(Nc2ccc(OCc3ccccc3)cc2)nc2cc(O)ccc12`, the viability index was 0.386.
`CCOc1ccc(NC(=O)c2ccc(F)c(S(=O)(=O)NC3CCCCCC3)c2)cc1` gave a viability index of 1.
Compound `Cc1ccc(N2C(=O)C3C(C2=O)C2(c4ccccc4)C(=O)C3(c3ccccc3)C(c3ccccc3)=C2c2ccccc2)c([N+](=O)[O-])c1` (configuration not stated) has a viability index of 0.939.
`O=C(O)c1ccc(NC(=O)c2ccc(N3C(=O)C4C5C=CC(C5)C4C3=O)cc2)cc1` (configuration not stated) showed a viability index of 1.06.
In the case of `CCCc1cc(-c2onc(C)c2-c2ccc(C(=O)OCC)o2)c(O)cc1OC`, the viability index is reported as 0.726.
Work on `Cc1cc(C)n(CC(O)Cn2c3ccc(I)cc3c3cc(I)ccc32)n1` (configuration not stated) yielded a viability index of 0.717.
`O=C(CCN1C(=O)C2CCCCC2C1=O)N1CCc2ccccc2C1` (configuration not stated) gave a viability index of 0.906.
For `O=C1CC(c2ccccc2)CC2=C1C(c1ccccc1F)Nc1ccccc1N2` (configuration not stated), the viability index was 0.551.
In the case of `COc1cccc(NC(=O)c2ccc(NCCCC3CCCCCC3)c([N+](=O)[O-])c2)c1`, the viability index is reported as 0.743.
Compound `CCc1cc2c3c(c1)C1(C(=O)N3C(C)(C)CC2C)C(C#N)=C(N)Oc2cc(C)oc(=O)c21` (configuration not stated) has a viability index of 1.13.
With `COc1cc2c(cc1OC)-c1cc3ccc(OC)c(OC)c3c[n+]1CC2` the viability index was 0.942.
`COc1ccc(NC(=O)NCc2cccn2Cc2ccc(F)cc2)cc1OC` was tested, and the viability index was 0.952.
In the case of `CCN1C(=Cc2ccc3cc(C)ccc3[n+]2C)Sc2ccc3ccsc3c21`, the viability index is reported as 0.297.
Work on `Cc1ccc(C)n1-c1ccc(N(C)C)cc1` yielded a viability index of 0.616.
`O=c1c(=Cc2ccc(Cl)cc2)sc2nc3ccccc3n12` showed a viability index of 0.804.
`COc1ccc(NC(=O)c2c(Cl)nc(Cl)c([N+](=O)[O-])c2C)cc1` was tested, and the viability index was 0.919.
`CC1=C(C(=O)OC(C)C)C(c2cccc([N+](=O)[O-])c2)C2=C(CCCC2=O)N1` (configuration not stated) gave a viability index of 0.66.
Work on `O=[N+]([O-])c1cccc2c(S(=O)(=O)NCCCN(CCO)CCO)cccc12` yielded a viability index of 0.657.
For `CCCCSc1ncnc2c1c(-c1ccccc1)cn2-c1cccc(F)c1`, the viability index was 1.1.
With `Cc1cc(N2CCN(C3CCCC3)CC2)n2c(nc3ccccc32)c1C#N` the viability index was 1.12.
`COC(=O)C1=C(C)N(C)C(C)=C(C(=O)OC)C1c1ccc(C)cc1` showed a viability index of 0.679.
With `Nc1nonc1-n1nnc(-c2ccccc2)c1C(=O)NN=Cc1ccc(F)c(Br)c1` the viability index was 0.717.
For `Cc1ccnc(NC(c2cccc(Cl)c2Cl)c2ccc3cccnc3c2O)c1` (configuration not stated), the viability index was 0.898.
With `CCOC(=O)c1c(CNC)n(C)c2cc(Br)c(O)cc12` the viability index was 0.301.
For `COc1cc(C(=O)N2N=C(c3c(-c4ccccc4)c4cc(Br)ccc4[nH]c3=O)CC2c2cccc([N+](=O)[O-])c2)cc(OC)c1OC` (configuration not stated), the viability index was 0.543.
`COc1ccc2cc(CNCCCO)c(N3CCN(c4ccc(F)cc4)CC3)nc2c1` was tested, and the viability index was 0.663.
Work on `CCOC(=O)c1c(C)n(-c2ccccc2)c2ccc(O)cc12` yielded a viability index of 0.846.
With `Cc1cc(N2CCN(Cc3ccc(F)cc3)CC2)n2c(nc3ccccc32)c1C#N` the viability index was 0.861.
With `CCCCCCN(CCCCCC)CC(O)c1cc(-c2ccc(Cl)cc2)nc2c(C)cc(C)cc12` (configuration not stated) the viability index was 0.738.
For `COc1ccc2ccc(OC)c(C3C(C#N)=C(N)OC4=C3C(=O)CC(C)(C)C4)c2c1` (configuration not stated), the viability index was 0.859.
For `CC1=NN(c2ccccc2)C(=O)C1=NNc1c(Br)cc(Br)cc1Br`, the viability index was 0.819.
`CCSc1nc2sc3c(c2c(=O)n1-c1ccccc1)CCN(Cc1ccccc1)C3` was tested, and the viability index was 0.57.
In the case of `COCCOC(=O)C1=C(C)NC2=C(C(=O)CC(c3ccc(OC)cc3)C2)C1c1ccc(F)cc1` (configuration not stated), the viability index is reported as 0.796.
With `CCOc1ccc(S(=O)(=O)Oc2cccc3cccnc23)cc1` the viability index was 1.11.
`Cc1cc(N2CCCCC2)nc2ccc(NC(=O)c3cccc([N+](=O)[O-])c3)cc12` was tested, and the viability index was 0.787.
`CCN1C(=Cc2ccc3ccccc3[n+]2CC)Sc2c1ccc1ccccc21` showed a viability index of 0.401.
With `O=C(O)CSc1ccc(C(=O)NC2CCCCNC2=O)cn1` (configuration not stated) the viability index was 0.774.
For `Oc1cccc(-c2nc(-c3ccccc3)c(-c3ccc4oc5ccc(-c6[nH]c(-c7cccc(O)c7)nc6-c6ccccc6)cc5c4c3)[nH]2)c1`, the viability index was 0.859.
For `N=c1n(CCN2CCCC2)c2ccccc2n1CC(O)c1ccc(Cl)c(Cl)c1` (configuration not stated), the viability index was 0.602.
In the case of `Nc1c(C(=O)c2ccc(Br)cc2)sc2nc(-c3cccnc3)ccc12`, the viability index is reported as 0.776.
`O=C(O)CCCNC(=O)C(O)(c1ccccc1)c1ccccc1` showed a viability index of 1.16.
`COc1ccc(C(=O)NCCc2ccc(C)cc2)cc1OC1CCN(C(C)=O)CC1` showed a viability index of 0.913.
Compound `Clc1ccc2[nH]c3c(NCCCN4CCOCC4)ncnc3c2c1` has a viability index of 0.915.
